The values that follow come from PubChem BioAssay AID360 (National Center for Advancing Translational Sciences (NCATS), 2006).

Out of some 48,000 compounds screened, about 550 (1.1%) were called active. Inconclusive results (about 4%) are left out. Cut-off read from the data, not from the text of the source: active = potency below about 15 µM; inconclusive = mostly about 16 µM to 33 µM; inactive = weaker than that. The list shows a part of the results.
Potency is the fitted concentration of half-maximal effect.

For this assay, the target named is Lysosomal acid glucosylceramidase (Homo sapiens) (UniProt P04062). In words: Glucocerebrosidase.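 Note: the screen sought inhibitors.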 As to conditions: purified enzyme, resorufin glucoside fluorescence (screen aimed at inhibitors), 20 min; series mostly up to 77 µM. The method, boiled down: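 Normal human glucocerebrosidase (0.2 nM final) was assayed with resorufin β-D-glucopyranoside (30 uM final) in 50mM citric acid/KH2PO4, 10mM sodium taurocholate, 0.01% tween-20, pH 5.9. Compounds were titrated; fluorescence (Ex 548, Em 600) read after 20 min at RT.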
Chain of UniProt P04062 (P04062 whole entry, looked up): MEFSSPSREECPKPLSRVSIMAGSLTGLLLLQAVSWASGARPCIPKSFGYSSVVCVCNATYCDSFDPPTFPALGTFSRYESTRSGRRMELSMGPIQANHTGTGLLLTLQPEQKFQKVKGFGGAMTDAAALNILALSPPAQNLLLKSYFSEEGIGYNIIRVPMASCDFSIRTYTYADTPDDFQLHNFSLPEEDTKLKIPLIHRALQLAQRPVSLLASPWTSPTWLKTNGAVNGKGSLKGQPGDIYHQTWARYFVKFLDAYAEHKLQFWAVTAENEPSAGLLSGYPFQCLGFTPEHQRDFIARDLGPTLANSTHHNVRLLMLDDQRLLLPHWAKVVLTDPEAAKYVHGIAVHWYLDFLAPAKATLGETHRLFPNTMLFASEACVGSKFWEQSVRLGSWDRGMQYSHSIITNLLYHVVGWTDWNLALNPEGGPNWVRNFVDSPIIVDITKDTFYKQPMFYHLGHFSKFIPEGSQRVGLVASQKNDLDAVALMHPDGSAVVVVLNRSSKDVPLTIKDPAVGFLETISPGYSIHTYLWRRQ
With `O=C(Cc1cccs1)Nn1c(Cc2cccs2)nc2ccccc2c1=O`, the Potency is inactive: > 76.9 µM.

`Cn1cccc1C(=O)NC(=O)COC(=O)c1ccccc1Sc1ccccc1C#N`: the Potency is inactive: > 76.9 µM. The result for `Cc1cc(C)nc(SCNC(=O)c2ccccc2)n1` reads inactive: > 76.9 µM; that for `O=C(Nc1ccccc1)N1CCC(C(=O)N(Cc2ccco2)Cc2cccs2)CC1`, inactive: > 76.9 µM; that for `Cc1ccc(O)c(NC(=O)c2cccc(NC(=O)c3ccco3)c2)c1`, inactive: > 76.9 µM.

Consider `CCOC(=O)c1cc2cc(C)ccc2[nH]1`, for which the Potency was inactive: > 76.9 µM. For `Cn1c(-c2ccc(Br)o2)nc2cc(Br)ccc21`, the Potency is inactive: > 76.9 µM. With `CCOC(=O)COc1ccc2c(c1)C(=O)CC(C)(c1cccnc1)O2` (centres undefined), the Potency is inactive: > 76.9 µM. Under `CCOCCCNC(=O)C1CCN(C(=O)Nc2ccc(C)cc2)CC1` stands inactive: > 76.9 µM; under `O=C(c1coc(=O)c2ccccc12)N1CCN(Cc2ccccc2)CC1`, inactive: > 76.9 µM. With `CCNCCNC(=O)c1c(O)c2ccccc2n(CC)c1=O`, the Potency is inactive: > 76.9 µM. In the case of `CCN(CC)C(=O)CSc1nnc([C@H](CCSC)NC(=O)OC(C)(C)C)o1`, the Potency was inactive: > 76.9 µM.

As to `O=C(CN1C(=O)c2cccc3cccc1c23)N1CCN(c2ccccc2)CC1`, the Potency was inactive: > 76.9 µM. Regarding `Cc1cc(N2CCN(C)CC2)nc2ccc(NC(=O)CCC(=O)NCc3ccco3)cc12`, the Potency entry was “inactive”. Regarding `COc1ccc(-c2noc(-c3ccc(Cl)cc3)n2)cc1`, the Potency was inactive: > 76.9 µM.

Regarding `NC12CC3CC(C1)CC(CO)(C3)O2`, the Potency was inactive: > 76.9 µM.

For `COCCNC(=O)C(c1ccco1)N(C(=O)Cn1nnc2ccccc21)c1ccc(C)cc1C` (centres undefined), the Potency was inactive: > 76.9 µM. Consider `COc1ccc2c(CC(=O)OCC(=O)c3ccc(F)cc3)coc2c1`, for which the Potency was inactive: > 76.9 µM. With `Cn1c(SCc2ccc(C#N)cc2)nnc1-c1ccccc1`, the Potency was inactive: > 76.9 µM.

Consider `Cc1occc1C(=O)Nc1cc(=O)n(C)c(=O)n1C`, for which the Potency was inactive: > 76.9 µM. Regarding `COc1cc([C@H]2[C@@H]3CCCC[C@]3(O)CCN2CC(=O)Nc2ccc(C)cc2C)ccc1O`, the Potency is inactive: > 76.9 µM.

For the compound `COc1cccc(NC(=O)C2CCCN2C(=O)OCc2ccccc2)c1` (centres undefined), the Potency entry is “inactive”. In the case of `Cc1cc(NS(=O)(=O)c2ccc(OCCNS(C)(=O)=O)cc2)no1`, the Potency was inactive: > 76.9 µM. For the compound `Cc1cccc(-c2c3c(=O)n(C)c(=O)n(C)c3cn2-c2ccccc2O)c1`, the Potency was inactive: > 76.9 µM. The result for `CC1(C)CC(=O)c2cnc(NCc3ccco3)nc2C1` reads inactive: > 76.9 µM. In the case of `Cc1nn(Cc2ccccc2)c(C)c1NC(=O)c1cc(-c2cccs2)on1`, the Potency was inactive: > 76.9 µM. With `O=C(OCc1csc(-c2ccccc2)n1)c1cccs1`, the Potency is inactive: > 76.9 µM.

`O=C(O)c1ccc2c(c1)CC(c1ccccc1)OC2=O` (centres undefined): the Potency was inactive: > 76.9 µM. Regarding `CCCCN(C(=O)NC(=O)Nc1c(C)cc(C)cc1C)S(C)(=O)=O`, the Potency was inactive: > 76.9 µM. Under `CC(C)OC(=O)c1cn(-c2ccccc2)nc1-c1ccco1` stands inactive: > 76.9 µM. As to `Cc1cc(=O)oc2cc(OCC(=O)N3c4ccccc4CC3C)ccc12` (centres undefined), the Potency is inactive: > 76.9 µM. As for `CCS(=O)(=O)N1CCC(c2nc(-c3ccc(C(F)(F)F)cc3)no2)CC1`, the Potency is inactive: > 76.9 µM. Under `N/C(=N\S(=O)(=O)c1cccs1)c1ccccc1` stands inactive: > 76.9 µM.

As to `O=C(O)CSCCC(=O)Nc1ccc(F)cc1`, the Potency is inactive: > 76.9 µM. `c1ccc2c(c1)nnn2Cc1nnc2sc(-c3ccncc3)nn12`: the Potency is inactive: > 76.9 µM. For `CC1CCCCN1CCNC(=O)Cn1nc(-c2ccccc2)ccc1=O` (centres undefined), the Potency was inactive: > 76.9 µM. The result for `COc1ccccc1OC(=O)c1ccc(SC)cc1OC` reads inactive: > 76.9 µM; that for `C=C(C)CSc1nc(N)cc(=O)[nH]1`, inactive: > 76.9 µM; that for `CC(Sc1nnc(-c2ccc(Cl)cc2)n1C)C(N)=O` (centres undefined), inactive: > 76.9 µM. `CCC(=O)N1CCc2cc(S(=O)(=O)NC(C(=O)NC(C)c3ccccc3)C(C)C)ccc21` (centres undefined): the Potency was inactive: > 76.9 µM. Regarding `COc1cccc(NC(=O)c2oc3ccccc3c2NC(=O)c2ccc3c(c2)OCO3)c1`, the Potency was inactive: > 76.9 µM.

`COc1ccc(C(=O)NC2(C(F)(F)F)N=C3SCCN3C2=O)cc1` (centres undefined): the Potency was inactive: > 76.9 µM. Consider `C/C(=C\C#N)n1nc(C)cc1N`, for which the Potency was inactive: > 76.9 µM. Under `CCOC(=O)CCc1c(C)c2ccc(O)cc2oc1=O` stands inactive: > 76.9 µM; under `COc1ccc(C)cc1NC(=O)COCC(=O)O`, inactive: > 76.9 µM. Take `O=C(Nc1nccs1)c1ccc(S(=O)(=O)c2ccccc2)cc1`: the Potency is inactive: > 76.9 µM. For `CCCCOC(=O)CNc1nnc(SCC(=O)OCC)[nH]c1=O`, the Potency is inactive: > 76.9 µM. The result for `O=C1c2ccccc2S(=O)(=O)N1Cc1nc2ccccc2s1` reads inactive: > 76.9 µM. Turning to `Cc1c(NC(=O)C(C#N)=C2CCCCC2)c(=O)n(-c2ccccc2)n1C`, the Potency was inactive: > 76.9 µM.

With `CCCCCCn1c(N(CC)CC)nc2c1c(=O)[nH]c(=O)n2C`, the Potency is inactive: > 76.9 µM. As for `COC(=O)C1=C(C)Nc2nnnn2C1c1ccco1` (centres undefined), the Potency is inactive: > 76.9 µM. As for `Cc1cc(NC(=O)c2ccc(NC(=O)c3cccs3)cc2)no1`, the Potency is active: 2.39 µM. As to `O=C(CSCc1cccc(F)c1)N1CCN(c2ccccc2)CC1`, the Potency is inactive: > 76.9 µM. Consider `COc1cc(-c2cc(C(=O)O)c3c(OC)c(OC)c(OC)cc3n2)ccc1O`, for which the Potency is inactive: > 76.9 µM. `O=C(c1c[nH]c2ccc(S(=O)(=O)N3CCC4(CC3)OCCO4)cc2c1=O)N1CCOCC1`: the Potency is inactive: > 76.9 µM. `CCOc1ccc(NC(=O)COC(=O)c2cccnc2)cc1`: the Potency is inactive: > 76.9 µM.

As to `COc1ccc(N(C(C)C(=O)NC2CCCCCC2)S(C)(=O)=O)cc1` (centres undefined), the Potency is inactive: > 76.9 µM.

Take `N#CC1=C(N)OC2=C(C(=O)CCC2)C12CCN(C(=O)OCc1ccccc1)CC2`: the Potency was inactive: > 76.9 µM. In the case of `Cc1ccc2c(c1)nnn2C1CCN(CC(=O)Nc2ccccc2N2CCOCC2)CC1`, the Potency is inactive: > 76.9 µM.
